One assay has as its system FGFR3. Put plainly: Ligand blocking activity of parental anti-FGFR3 antibodies (Table 1). The class given is binding.
The target in a further assay is mfFGFR3b (mmh). Kind of assay: Biacore binding to monkey FGFR3b. Particulars: unit inferred. The protocol:
(§1) Affinity and mechanism of action of binding of anti-FGFR3 antibodies to FGFR3 isoforms were determined by Biacore analysis. In brief, in-house generated monoclonal anti-human Fc antibody was immobilized on the surface of a CM-5 sensor chip. Different concentrations of FGFR3 antibodies were injected at 50 μL/min for 4 min and the assay was performed at 25° C. The mAb binding response was monitored and, for low affinity receptors, steady-state binding equilibrium was calculated. Kinetic association (ka) and dissociation (kd) rate constants were determined by processing and fitting the data to a 1:1 binding model using Scrubber 2.0 curve fitting software. Binding dissociation equilibrium constants (KD) and dissociative half-lives (t1/2) were calculated from the kinetic rate constants using the formula: KD (M)=kd/ka; and t1/2 (min)=(ln2/(60*kd). Some KD values were derived using the steady state equilibrium dissociation constant; When no KD values could be derived, it was marked as NB (no binding observed) or IC (inconclusive affinity determination due to low specific RU signal).
For orientation: In SPR one partner is held on a chip, and binding of the other changes the refractive index at the surface.

A further assay deals with T1, moFGFR3b (mmh) (Mus musculus, UniProt Q61851).
T1 construct: biotinylated human or mouse FGFR3b-ecto.mmH, human FGFR3c-ecto.mmH; mmh (own knowledge: myc-myc-hexahistidine) (C)
T1 sequence (Q61851 21-371 isoform Q61851-2): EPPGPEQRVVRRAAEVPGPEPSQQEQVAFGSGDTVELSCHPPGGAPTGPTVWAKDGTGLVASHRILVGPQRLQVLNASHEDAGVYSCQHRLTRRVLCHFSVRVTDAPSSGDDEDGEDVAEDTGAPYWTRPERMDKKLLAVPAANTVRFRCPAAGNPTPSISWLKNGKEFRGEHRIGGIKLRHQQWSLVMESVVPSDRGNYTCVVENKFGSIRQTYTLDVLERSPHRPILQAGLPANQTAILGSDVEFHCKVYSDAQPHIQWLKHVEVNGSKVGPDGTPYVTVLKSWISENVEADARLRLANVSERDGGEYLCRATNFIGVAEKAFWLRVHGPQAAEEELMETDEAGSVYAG
Kind of assay: Biacore binding to mouse FGFR3b. As to the method: as §1

For assay [1], the system named is UMUC14 bladder cancer cells (FGFR3 S249C). Put plainly: UMUC14 spheroid proliferation assay (CellTiter-Glo 3D). The assay is classed as cell-based, human. The protocol: Two human bladder cancer cell lines, UMUC14 (Sigma-Aldrich) and RT4 (ATCC), which express an S249C mutation of FGFR3 or express TACC3-FGFR3 fusion mutation, respectively, were maintained in culture according to the suppliers' recommendations.
7500 UMUC14 or 5000 RT4 bladder cancer cells were seeded in U-bottom low attachment 96-well spheroid plate (Corning) in culture medium (MEM medium with 10% FBS, 1% non-essential amino acids, Pen/Strep). Cells were cultured for 24-48 hours at 37° C. 5% CO2 to allow tumor spheroid formation. Tumor spheroids were treated with antibodies at concentrations ranging from 100 nM to 15.2 pM with 1:3 serial dilution as indicated in the figures. Cells were cultured for 5-6 days, and then subjected to CellTiter-Glo 3D viability assays (Promega) following the manufacturer's protocol. Luminescence signal was read on PE Envision plate reader. Cell proliferation was expressed as percentages of untreated controls. Data were analyzed using GraphPad Prism software using three parameter nonlinear curve fit.
On the technique in general: Cellular ATP, detected with luciferase, serves as a proxy for viable cell number.

For assay [2], the system named is BaF3 cells expressing FGFR3 S249C. Put plainly: BaF3 cell proliferation, FGFR3 S249C. The class given is cell-based. The note with it: 72 hours. From the text:
cDNA expressing FGFR3 mutants (S249C, S248C, Y375C, V555M, V555L, S249C+V555M, or S249C+V555L) were synthesized and cloned into pLVX Lenti-viral vector (Thermo Fisher). Viral particles were generated by lipofectamine transfection of LentiX 293T cells using Lenti-X packaging single shots following manufacturer's protocol (Clontech/Takara) and concentrated using Lenti-X concentrator and titer determined using Lenti-X p24 rapid titer kit (Clontech/Takara). BaF3 cells were transduced with virus at ˜0.3 MOI. Expression of FGFR3 receptors was confirmed by FACS analysis and western blot.
For cell proliferation assays, engineered BaF3/hFGFR3 cells grown in complete medium were washed and plated in IL-3-free culture media±5 μg/ml heparin and 1 nM human FGF1. Cells were plated out at 1×10^5 cells/well into 96-well plates, followed by the addition of 1:3 serially diluted antibodies as indicated in figures. After addition of antibodies, cells were incubated at 37° C. for 72 h followed by the addition of CellTiter-Glo™ (Promega) reagent. The luminescent signal was detected by Envision plate reader (PerkinElmer). Data was analyzed using Prism software (GraphPad).
Heparin has been implicated in disulfide formation between FGFR3 S249C monomers. […] The levels of phospho-MAPK (pMAPK) and total MAPK were determined by western blot as described in Section 8.1.5.

The test system of assay [3] is BaF3 cells expressing FGFR3 S249C+V557L. Put plainly: BaF3 cell proliferation, FGFR3 S249C+V557L. The class given is cell-based. The note with it: FGF1/heparin, 72 hours. From the text: cDNA expressing FGFR3 mutants (S249C, S248C, Y375C, V555M, V555L, S249C+V555M, or S249C+V555L) were synthesized and cloned into pLVX Lenti-viral vector (Thermo Fisher). Viral particles were generated by lipofectamine transfection of LentiX 293T cells using Lenti-X packaging single shots following manufacturer's protocol (Clontech/Takara) and concentrated using Lenti-X concentrator and titer determined using Lenti-X p24 rapid titer kit (Clontech/Takara). BaF3 cells were transduced with virus at ˜0.3 MOI.
For cell proliferation assays, engineered BaF3/hFGFR3 cells grown in complete medium were washed and plated in IL-3-free culture media±5 μg/ml heparin and 1 nM human FGF1. Cells were plated out at 1×10^5 cells/well into 96-well plates, followed by the addition of 1:3 serially diluted antibodies as indicated in figures. After addition of antibodies, cells were incubated at 37° C. for 72 h followed by the addition of CellTiter-Glo™ (Promega) reagent. The luminescent signal was detected by Envision plate reader (PerkinElmer). Data was analyzed using Prism software (GraphPad). […]

B1: mAb063: parental anti-FGFR3 antibody; anchor or additional arm; parent of BiP063N2 (antibody)
heavy: QVQLQESGPGLVKPSETLSLTCTVSGDSINSYFWSWIRQLPGKELEWIGHIYSSGSTRYNPSLQSRVTISIDTSKNQFSLKLSSVTAADTAVYYCARGASAVDYWGQGTLVTVSSASTKGPSVFPLAPCSRSTSESTAALGCLVKDYFPEPVTVSWNSGALTSGVHTFPAVLQSSGLYSLSSVVTVPSSSLGTKTYTCNVDHKPSNTKVDKRV[human IgG4 Fc with S228P (EU numbers) cut from this listing]
light: EIVLTQSPGTLSLSPGERATLSCRTSQSISSGYLAWYQQKPGQAPRLLIYGASRRATGIPDRFSGSGSGTDFTLTISRLEPEDFVVYYCQQYGSSPYTFGQGTKLEIKRTVAAPSVFIFPPSDEQLKSGTASVVCLLNNFYPREAKVQWKVDNALQSGNSQESVTEQDSKDSTYSLSSTLTLSKADYEKHKVYACEVTHQGLSSPVTKSFNRGEC
As a reminder, the Kd is the equilibrium constant for the complex coming apart. Take B1: the “Ligand Blocking Activity (percent value of the cell)” value in the assay with FGFR3 was 95%. Also, the IC50 in the assay with FGFR3 (cell prints value/%, unit inferred, NB not defined for this column, read-out: Ligand Blocking Activity (first value of the cell)) amounted to 2 nM. This molecule had a Kd at mfFGFR3b (mmh) of 2.02 nM. Further, the “binding to monomeric mouse FGFR3b (in words)” value in the assay with moFGFR3b (mmh) is “shown to bind”. Also, the “antiproliferative activity in UMUC14 spheroid proliferation assay” value in assay [1] (5 to 6 days treatment) is listed as “potent inhibitory activity”. In addition, the “loss of activity on UMUC14 cell proliferation” value in assay [1] (IgG1 backbone) was “complete loss of activity”; in assay [1] (IgG4s backbone), “partial”. Also, the “effect on proliferation of hFGF1/heparin treated BaF3 cells” value in assay [2] is “able to inhibit the proliferation”. Also, the “effect on growth of BaF3 cells expressing FGFR3 S249C+V557L” value in assay [3] is on record as “robustly inhibited the growth”.
